# Measurements as given in PubChem BioAssay AID686979 (National Center for Advancing Translational Sciences (NCATS), 2013).
# Several values for one entry are separate records, joined by “and”; a condition that tells them apart may be missing. Equal values may be shown once. Hit rate of the full screen: of about 420,000 compounds, about 50,000 (12%) were called active. The shares of active, inactive and inconclusive entries below differ from those in the screen. Calls follow the shape of the dose curve; as a rule, active = well fitted inhibition curve with a large enough effect; inconclusive = small, poorly fitted or top-dose-only effect; inactive = flat fitted curve, though single readings scatter. Potencies of inconclusive entries are left out as doubtful fits.
# Assay: qHTS for Inhibitors of human tyrosyl-DNA phosphodiesterase 1 (TDP1): qHTS in cells in presence of CPT; also: nearly all actives have a fitted effect of over 55% in size
# Details: chicken DT40 Tdp1-/-;hTDP1 cells + 20 nM CPT, ATP luminescence, 48 h; activity change, negative = growth inhibition: at 46.2 µM (top of the series) unless noted
# In short: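 Cell growth measured by CellTiter-Glo luminescence after a minimum 48 h, 37 C compound exposure with 20 nM CPT in Tdp1-knockout DT40 cells stably expressing hTDP1, seeded 400/well; qHTS titration format.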
# % is scaled to controls: 0 for no effect and ±100 for the full control effect; potency is read from the fitted curve at half-maximal effect; tags tell the direction and shape of the fitted curve.
SMILES,Potency,"activity change, negative = growth inhibition"
COCCCNC(=S)NCCCNc1nc2cc(C)cc(C)c2cc1C#N,"inconclusive [inhibitor, single point]",–
O=C(Nc1ccccc1)c1c(O)c2c(n(Cc3ccco3)c1=O)CCCC2,"inconclusive [inhibitor, single point]",–
COc1cc(C(=O)NC2CC3CCCC(C2)N3CC(=O)Nc2ccccc2)cc(OC)c1OC (stereo unspecified),"inconclusive [inhibitor, single point]",–
CC(=O)OC(C)(C)/C=C/C(=O)[C@](C)(O)[C@H]1[C@H](O)C[C@@]2(C)[C@@H]3CC=C4[C@H](C[C@H](O)C(=O)C4(C)C)[C@]3(C)C(=O)C[C@]12C,active: 0.0461 µM,–
O=C1NC(=O)N(c2ccccc2)C(=O)/C1=C\c1ccccc1[N+](=O)[O-],active: 23.1 µM,–
CC12CCCCC1=NC(c1ccc(Br)cc1)N2O (stereo unspecified),–,inactive: -15.4%
COc1ccc(C(c2nnnn2-c2ccc3c(c2)OCCO3)N2CCC3(CC2)C(=O)NCN3c2ccccc2)cc1 (stereo unspecified),"inconclusive [inhibitor, single point]",–
COc1ccc(N2C(=O)/C(=C/c3cccs3)C(=O)NC2=S)cc1,active: 5.17 µM,–
Cc1nc2ccccc2n1C1CCN(Cc2nnnn2CCc2ccccc2)CC1,"inconclusive [inhibitor, partial curve, poor fit]",–
CC(C)CC(N(C)C)C1(c2ccc(Cl)cc2)CCC1 (stereo unspecified),"inconclusive [inhibitor, single point]",–
CNC1(c2ccccc2Cl)CCCCC1=O (stereo unspecified),inactive,–
C[C@]12CCC3C(CC[C@H]4[C@H](O)[C@H](O)CC[C@]34C)C1CCC2=O (stereo partly specified),active: 16.4 µM,–
C[C@]12CCC3C(CC[C@H]4C[C@H](N)CC[C@]34C)C1CC[C@H]2O (stereo partly specified),"inconclusive [inhibitor, single point]",–
CCC(CC)N1CCN(C(=O)Cc2ccccc2)CC1,–,inactive: -0.67%
O=C(Nc1cccc(Cl)c1)OC1CN2CCC1CC2 (stereo unspecified),active: 5.17 µM,–
O=C1N(c2ccc(Cl)cc2)C(c2cccnc2)N2CCCN12 (stereo unspecified),–,inactive: -21.2%
CCOC(=O)c1ccc(NC(=O)c2cccn(Cc3ccc(C)cc3)c2=O)cc1,"inconclusive [inhibitor, partial curve, poor fit]",–
COc1ccc(S(=O)(=O)N2Cc3ccccc3-n3nncc3C2)cc1,active: 16.4 µM,–
CC(C)CN1CCN(Cc2ccccc2C(F)(F)F)CC1CCO (stereo unspecified),–,inactive: -12.4%
NC(Cc1ccc(Cl)cc1)c1csc(Nc2ncccn2)n1 (stereo unspecified),active: 3.66 µM,–
Cc1cc(C)n(-c2ccc(NN=C(C#N)C#N)cc2)n1,active: 10.3 µM,–
Cc1cccc(-n2c(O)c(/C=N/N3CCOCC3)c(=O)[nH]c2=S)c1,"inconclusive [inhibitor, single point]",–
CC1(Cc2ccc(C(F)(F)F)nc2)C(=O)Nc2cc(-c3ccccc3Cl)ccc21 (stereo unspecified),active: 16.4 µM,–
COc1ccc(CN2CCCC(C(=O)c3ccccc3SC)C2)cc1O (stereo unspecified),"inconclusive [inhibitor, single point]",–

SMILES,Potency,"activity change, negative = growth inhibition"
O=C1NCN(c2ccccc2)C12CCN(C(c1ccccc1OC(F)(F)F)c1nnnn1C1CCCC1)CC2 (stereo unspecified),"inconclusive [inhibitor, single point]",–
CC(=O)[C@]1(O)CCC2C3CCC4=CC(=O)CC[C@@]4(C)C3CC[C@]21C (stereo partly specified),"inconclusive [inhibitor, single point]",–
Cc1cc(=O)oc2cc(OCC(=O)N3CCN(C(C)c4ccccc4)CC3)c(Cl)cc12 (stereo unspecified),"inconclusive [inhibitor, single point]",–
Clc1cccc(Cl)c1NC1=NCCS1,–,inconclusive: 0.171% [inhibitor]
COC(=O)C(O)(c1ccc(NC(=S)NC(=O)c2ccc(Cl)cc2Cl)c(C)c1)C(F)(F)F (stereo unspecified),"inconclusive [inhibitor, single point]",–
NS(=O)(=O)OC(CCc1ccccc1)C(Cl)(Cl)Cl (stereo unspecified),"inconclusive [inhibitor, single point]",–
O=C1C(Cl)=CC(=Nc2ccc(O)cc2)C=C1Cl,active: 1.3 µM,–
Oc1ccc(C[C@H]2NCCc3cc(O)c(O)cc32)cc1O,"inconclusive [inhibitor, single point]",–
c1cc2c(cc1CN1CCNCC1)OCO2,–,inactive: -16.2%
O=C1C2C3CCC(O3)C2C(=O)N1c1cccc(F)c1 (stereo unspecified),–,inactive: 5.43%
O=C(c1cccnc1)N1Cc2ccccc2-n2nncc2C1,–,inactive: -26.4%
CO[C@H](C(=O)[C@@H](O)[C@@H](C)O)C1Cc2cc3cc(O[C@H]4C[C@@H](O[C@H]5C[C@@H](O)[C@H](O)[C@@H](C)O5)[C@@H](O)[C@@H](C)O4)c(C)c(O)c3c(O)c2C(=O)[C@H]1O[C@H]1C[C@@H](O[C@H]2C[C@@H](O[C@H]3C[C@](C)(O)[C@H](O)[C@@H](C)O3)[C@H](O)[C@@H](C)O2)[C@H](O)[C@@H](C)O1 (stereo partly specified),active: 211 nM and active: 75 nM,–
C[C@H](CCC(=O)O)[C@H]1CC[C@H]2[C@@H]3[C@@H](O)C[C@@H]4C[C@H](O)CC[C@]4(C)[C@H]3CC[C@]12C,"inconclusive [inhibitor, single point]",–
COc1ccccc1CCNC1CCCCCC1,"inconclusive [inhibitor, partial curve]",–
c1cncc(CNC2CCCC2)c1,–,inactive: 3.3%
CCOC(=O)C1(CCc2ccccc2)CCN(Cc2ccco2)CC1,"inconclusive [inhibitor, single point]",–
CC(C)CCCC(C)C1CCC2C3CC(=O)[C@H]4CC(O)CC[C@]4(C)C3CC[C@@]12C (stereo partly specified),"inconclusive [inhibitor, single point]",–
COCc1cc(C2SCC(=O)Nc3c2c(=O)[nH]n3C(C)C)ccc1OC (stereo unspecified),"inconclusive [inhibitor, single point]",–
CCOC(=O)c1ccc(NC(=O)c2nc[nH]c2C(=O)NCCNC(=O)c2[nH]cnc2C(=O)Nc2ccc(C(=O)OCC)cc2)cc1,active: 2.91 µM,–
O=C(COc1ccccc1)N1CCN(CC2CC=CCC2)CC1 (stereo unspecified),–,inactive: -4.87%
COc1cc(OC)cc(C(=O)Nc2nc(-c3nnn(-c4ccc(C)cc4)c3C)ns2)c1,"inconclusive [inhibitor, partial curve]",–
CNC(C)C(O)c1ccc(O)cc1 (stereo unspecified),inactive,–
CCOc1cc2c(cc1OCC)-n1cccc1C(c1ccc(OC(F)F)cc1)NC2 (stereo unspecified),"inconclusive [inhibitor, single point]",–
O=C(O)c1ccc(/C=C/c2nc3ccccc3c(=O)n2-c2ccc(Br)cc2)cc1,–,inactive: -28.6%

SMILES,Potency,"activity change, negative = growth inhibition"
Cc1cc(NC(=O)CCl)no1,active: 13 µM,–
O=C1CCCC2=C1C(c1cccnc1)Nc1ccccc1N2 (stereo unspecified),–,inactive: -3.04%
Cc1ccc(Cl)c2sc(NC(=O)c3ccc(S(=O)(=O)N4CCCC4)cc3)nc12,"inconclusive [inhibitor, single point]",–
O=C(NCc1c(-n2cccc2)sc2c1CCCC2)Nc1cccc(C(F)(F)F)c1,active: 4.11 µM,–
Cc1ccc(Cn2cccc(C(=O)Nc3nnc(C)s3)c2=O)cc1,–,inactive: -22.5%
O=Cc1cn(Cc2ccc([N+](=O)[O-])cc2)c2ccccc12,"inconclusive [inhibitor, single point]",–
CNC(=O)O/N=C(/C)SC,–,inactive: -5.17%
CCc1cccc(NC(=O)C2CCN(S(=O)(=O)c3ccc(Br)s3)CC2)c1,"inconclusive [inhibitor, single point]",–
OC(CCNCCc1c[nH]c2ccccc12)C(F)(F)F (stereo unspecified),–,inactive: 8.87%
COc1ccc(Sc2cnn(-c3ccccc3)c(=O)c2Cl)cc1,"inconclusive [inhibitor, single point]",–
O=S(=O)(c1ccccc1)N1Cc2ccccc2-n2nncc2C1,"inconclusive [inhibitor, partial curve]",–
C=C1[C@H]2C[C@H]3[C@H]4N5C[C@]6(C)CCC[C@]47[C@H]([C@H]2O)[C@]3(C[C@]5(O)[C@H]67)[C@@H]1O,–,inactive: 11.4%
CC(C)CCOC(=O)c1c(N)n(CC2CCCO2)c2nc3ccccc3nc12 (stereo unspecified),"inconclusive [inhibitor, single point]",–
CCOC(=O)c1ccccc1NC(=O)N(Cc1ccc(CC)cc1)Cc1cn[nH]c1-c1ccc(OC)cc1,"inconclusive [inhibitor, single point]",–
Cc1ccc(NC(=O)CN2C(=O)CN=C(c3ccccc3)c3cc(Cl)ccc32)cc1,"inconclusive [inhibitor, single point]",–
CN1C2CCC1/C(=C/c1ccccn1)C(=O)/C2=C\c1ccccn1,active: 0.517 µM,–
COC(=O)C1=C(c2ccc(OC(F)(F)F)cc2)C[C@@H]2CC[C@H]1N2C(=O)N1CCCC1,active: 1.84 µM,–
O=C1N(c2ccccc2)C(c2cccnc2)N2CCCN12 (stereo unspecified),"inconclusive [inhibitor, full curve]",–
CC[C@H](CO)Nc1nc(NCc2ccccc2)c2ncn(C(C)C)c2n1,active: 24.7 µM,–
O=C(c1c[nH]c2ccc(S(=O)(=O)N3CCOCC3)cc2c1=O)N1CCC2(CC1)OCCO2,–,inactive: -9.55%
CN1C(=O)C(=Cc2ccc(Sc3ccccc3)o2)C(=O)N(C)C1=S,"inconclusive [inhibitor, single point]",–
CCOC(=O)c1ccc(NC(=O)c2c(O)[nH]c(=O)[nH]c2=O)cc1,"inconclusive [inhibitor, single point]",–
S=c1nc(-c2ccccc2)n(-c2ccccc2)[nH]1,"inconclusive [inhibitor, single point]",–
